From the RNAGym collection of RNA variant scans (doi:10.1093/nar/gkz1192) come the findings set out here.

Read counts are not given, so values of variants with three or more changes are uncertain.

B1: CPEB3 Ribozyme (parent)
chain: UAACAGGGGGCCACAGCAGAAGCGUUCACGUCGCAGCCCCUGUCAGAUUCUGGUGAAUCUGCGAAUUCUGCUGUAUAUCUC

Variants of B1 are the subject of the series. In words: self-cleavage, relative activity (ratio to wild type); higher = more cleavage; in vitro, sequencing. In outline: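 Libraries of CPEB3 self-cleaving ribozyme mutants came from rounds of error-prone PCR and carried barcodes, which DNA sequencing matched to variants. In vitro transcription used T7 RNA polymerase at 37°C for 5 hours, with a further 15 min in DNase I before EDTA stopped the reaction; the ribozymes cleaved during both steps. The RNA was reverse transcribed with template switching and sequenced on Illumina. Relative activity is the cleaved/total read fraction of a variant divided by that of the unmutated ribozyme, averaged over three batches with at least 5 reads.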
With UAACAGGGGGCCACAACAGAAGCGCACACGUCGCAGCCCCUGUCAGAUUCUGGUGAAUCUGCGAAUUCUGCUGUAUAUCCC [G16A U25C U26A U80C], the self-cleavage was found to be 0.07.

As to UAACAGGGGGCCACAACAGAAGCGUCCUCGUCGCAGCCCCUGUCAGAUUCUGGCGAAUCCGCGAAUUCUGCUGAAUAUCUC [G16A U26C A28U U54C U60C U74A], the self-cleavage was 0.08. With UAACAGGGGGCCACUGCAGAAGCGUUCACGUCGCAGCCCCUGUCAGAUUCUGGUGAAUCAGCGGAUUCUGCUGUAUAUCUC [A15U U60A A64G], the self-cleavage worked out at 0.12.

UAACAGGGGGCCACUGCAGAAGCGUUCACGUCGCAGCCCCUGUCAGAUUCUGGUGAAUCAGCGUAUUCUGCUGUAUAUCUC [A15U U60A A64U]: the self-cleavage stood at 0.12. With UAACAGGGGGCCACAACAGAGGCGUUCACGCCGCAGCCCCUGUCAGAUUCAGGUGAACCUGCGAAUUCUGCUGUGUAUCUC [G16A A21G U31C U51A U58C A75G], the self-cleavage was found to be 0.05. As for UAACAGGGGGCCACUGCAGAAGCGUUCACGUCGCAGCCCCUGUCAGAUUCUGGCGAAUCUGCGAAUUCUGCUGUAUGUCUC [A15U U54C A77G], the self-cleavage was found to be 0.91. Next, UAACAGGGGGCCACAACAGAAGCGUUCACGUCGCAGCCCCUGUCAGGUUCUGGUGAAUCUGCGAAUUCUGCAGUAUAUCUC [G16A A47G U72A]: 0.18; UAACAGGGGGCCACUGCAGAAGCGUUCACGUCGCAGCCCCUGUCAGAUUCUGGUGAAUCUGCGAAUACUGCAGUUUAUCUC [A15U U67A U72A A75U]: 0.18. On to UAACAGGGGGCCACAACAGAAGCGCUCACGUCGCAGCCCCUGUCAGAUUCUGGCGACUCUGCGAAUUCUGCUGUAUAUCUC [G16A U25C U54C A57C], for which the self-cleavage was 0.16. Consider UAACAGGGGGCCACAACAGAAGCGUUCACGUCGCAGCCCCUGUCAGAUUCUGGUGGACCUGCGAAUUCUGCUGUAUAUCUC [G16A A56G U58C], for which the self-cleavage was found to be 0.09. As for UAACAGGGGGCCACAACAGAAGCGCUCACCUCGCAGCCCCUGUCAGAUUCUGGUGAAUCUGCGAAUUCUGCUGUAUAACCC [G16A U25C G30C U78A U80C], the self-cleavage stood at 0.28. For the variant UAACAGGGGGCCACUGCAGAAGCGUUCACGUCGCAGCCCCUGUCAGAUUCUGGUGAAUCCGCGAAUUCUGCUGAAUAUCUC [A15U U60C U74A], the self-cleavage was 0.13.

For the variant UAACAGGGGGCCACAACAGAAGCGUUCGCGUCGCAGCCCCAGUCAGAUUCUGGUGAAUCCGCGAAUUCUGCUGUAUAUCUC [G16A A28G U41A U60C], the self-cleavage stood at 0.08. On to UAACAGGGGGCCACAACAGAAGCGUUUUCGUCGCAGCCCCUGUCAGAUUCUGGUGGAUCUGCGAGUUCUGCUGUAUAUCUC [G16A C27U A28U A56G A65G], for which the self-cleavage turned out to be 0.14. As for UAACAGGGGGCCACUGCAGAAGCGUUCACGUCGCAGCCCCUGUCAGAUUCCGGUGAAUCUUCGGAUUCUGCUGUAUAUCUC [A15U U51C G61U A64G], the self-cleavage was found to be 0.08.

Turning to UAACAGGGGGCCACUGCAGAAGCGUUCACGUCGCAGCCCCUGUCAGAUUCUGGUGAAUCUGCGAAUCCCGCUGUACAUCUC [A15U U67C U69C U76C], the self-cleavage is 0.1. For UAACAGGGGGCCACUGCAGAAGCGUUCACGUCGCAGCCCCUGUCAGAUUCUGGUGAAUCUGCGAAUGCUACUGUAUAUCUC [A15U U67G G70A], the self-cleavage amounted to 0.09.

With UAACAGGGGGCCACAACGGAAGCGUUCACGCCGCAGCCCCUGUCAGAUUCUGGUGAGUCUGCGAAUUCUGCUGCAUAACUC [G16A A18G U31C A57G U74C U78A], the self-cleavage was determined as 0.26.

UAACAGGGGGCCACAACAGAGGCGUUCACGUCGCAGCCCCUGUCAGAUUCUGGUGUAUCUGCGAAUUCUGCUGUAUACCUC [G16A A21G A56U U78C]: the self-cleavage was determined as 0.14. In the case of UAACAGGGGGCCACAACAGAAGCGUUCACGUCGCAGCCCCUGUCGGAUUCUGGUGAAUCUGCGAAUCCUGCUGUAUAUCUC [G16A A45G U67C], the self-cleavage was 0.11. With UAACAGGGGGCCACUGCAGAAGCGUUCACGUCGCAGCCCCUGUCAGAUUCUGGCGAAUCUGCGAGUUCUGCUGUAUAUCAC [A15U U54C A65G U80A], the self-cleavage stood at 0.18.

For the variant UAACAGGGGGCCACAACAGAAGCGUUCACGUCGCAGCCCCUGUCGGAUUCUGGAGAAUCCGCGAAUUCUGCUGUAUAUCCC [G16A A45G U54A U60C U80C], the self-cleavage was found to be 1.19. Take UAACAGGGGGCCACAACAGAAGCGUUCACAUCGCAGCCCCUGUCAGAUUCUGGUGAAUCUGCGGAUUCUGCUGUAUAUCUC [G16A G30A A64G]: the self-cleavage turned out to be 0.07. The result for UAACAGGGGGCCACAACAGAAGCGCUCACGUCGCAGCCCCUGUCUGAUUCUGGUGAAUCUGCGAACUCUGCUGUAUAUCCC [G16A U25C A45U U66C U80C] reads 0.17; that for UAACAGGGGGCCACAACAGAAGCGCUCUCGUCGCAGCCCCUGUCAGAUUCUGGUGAAUCUGCGAAUUCUGCUGUAUAUCAC [G16A U25C A28U U80A], 0.1. Turning to UAACAGGGGGCCACAACAGGAGCGUUCACGUCGCAGCCCCCGUCAGAUUCUGGUGAAUCUGCGAAUUCUGCUGUAUAUCUC [G16A A20G U41C], the self-cleavage stood at 0.13.

As to UAACAGGGGGCCACAACAGAAGCGCUCACGUCGCGGCCCCUGCCAGAUUCUGGUGAAUCUGCGGGUUCUGCUGUAUAUCUC [G16A U25C A35G U43C A64G A65G], the self-cleavage worked out at 0.19. Take UAACAGGGGGCCACAACAGAAGCGUCCACGUCGCAGCCCCCGUCAGAUUCAGGUGAUUCUGCGAAUUCUGCUGUAUAUCUC [G16A U26C U41C U51A A57U]: the self-cleavage worked out at 0.12. The result for UAACAGGGGGCCACUGCAGAAGCGUUCACGUCGCAGCCCCUGUCAGAUUCUGGUGAAUCAGCGAAUUCAGCUGUAUAUCUC [A15U U60A U69A] reads 0.17; that for UAACAGGGGGCCACUGCAGAAGCGUUCACGUCGCAGCCCCUGUCAGAUUCUGGCGAAUCUGCGAACUCUGCUGUAUUUCCC [A15U U54C U66C A77U U80C], 0.19. For the variant UAACAGGGGGCCACAACAGAAGCGCUCACGUCGCAGCCCCUGUCAGAUUCUGGUGAUUCUGCGAAUUCUGCUGUAUAACCU [G16A U25C A57U U78A U80C C81U], the self-cleavage was 0.08. Consider UAACAGGGGGCCACUGCAGAAGCGUUCACGUCGCAGCCCCUGUCAGAUUCUGGUGAAUCUGCGAAUCCUGCAGUAUAUCUC [A15U U67C U72A], for which the self-cleavage amounted to 0.12.

Regarding UAACAGGGGGCCACAACAGAUGCGUUCACGUCGCAGCCCCUGUCAGACUCAGGUGAAUCUGCGAAUUCUGCUGUAUAUCUC [G16A A21U U48C U51A], the self-cleavage was 0.14. With UAACAGGGGGCCACAACAGAAGCGCUCACGUCGCAGCCCCUGUCAGAUUCCGGUGAAUCUGCGAAUUCUGCUGUAUAUCUC [G16A U25C U51C], the self-cleavage was 0.17.
